Measured values published in paper PMC4336329 (PLoS ONE, 2015).
About 14,000 (4.5%) of roughly 310,000 compounds showed an effect of 50% or more. The effect is printed as a negative number. The list shows a part of the results.

Biological target: human ether-à-go-go-related gene (hERG) potassium channel (human, UniProt Q12809)
Experiment: primary screen, population patch clamp on CHO cells stably expressing hERG
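Further: peak tail current of the secondary pulse compared with the same well before compound.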

Chain of human ether-à-go-go-related gene (hERG) potassium channel (Q12809 whole entry, looked up): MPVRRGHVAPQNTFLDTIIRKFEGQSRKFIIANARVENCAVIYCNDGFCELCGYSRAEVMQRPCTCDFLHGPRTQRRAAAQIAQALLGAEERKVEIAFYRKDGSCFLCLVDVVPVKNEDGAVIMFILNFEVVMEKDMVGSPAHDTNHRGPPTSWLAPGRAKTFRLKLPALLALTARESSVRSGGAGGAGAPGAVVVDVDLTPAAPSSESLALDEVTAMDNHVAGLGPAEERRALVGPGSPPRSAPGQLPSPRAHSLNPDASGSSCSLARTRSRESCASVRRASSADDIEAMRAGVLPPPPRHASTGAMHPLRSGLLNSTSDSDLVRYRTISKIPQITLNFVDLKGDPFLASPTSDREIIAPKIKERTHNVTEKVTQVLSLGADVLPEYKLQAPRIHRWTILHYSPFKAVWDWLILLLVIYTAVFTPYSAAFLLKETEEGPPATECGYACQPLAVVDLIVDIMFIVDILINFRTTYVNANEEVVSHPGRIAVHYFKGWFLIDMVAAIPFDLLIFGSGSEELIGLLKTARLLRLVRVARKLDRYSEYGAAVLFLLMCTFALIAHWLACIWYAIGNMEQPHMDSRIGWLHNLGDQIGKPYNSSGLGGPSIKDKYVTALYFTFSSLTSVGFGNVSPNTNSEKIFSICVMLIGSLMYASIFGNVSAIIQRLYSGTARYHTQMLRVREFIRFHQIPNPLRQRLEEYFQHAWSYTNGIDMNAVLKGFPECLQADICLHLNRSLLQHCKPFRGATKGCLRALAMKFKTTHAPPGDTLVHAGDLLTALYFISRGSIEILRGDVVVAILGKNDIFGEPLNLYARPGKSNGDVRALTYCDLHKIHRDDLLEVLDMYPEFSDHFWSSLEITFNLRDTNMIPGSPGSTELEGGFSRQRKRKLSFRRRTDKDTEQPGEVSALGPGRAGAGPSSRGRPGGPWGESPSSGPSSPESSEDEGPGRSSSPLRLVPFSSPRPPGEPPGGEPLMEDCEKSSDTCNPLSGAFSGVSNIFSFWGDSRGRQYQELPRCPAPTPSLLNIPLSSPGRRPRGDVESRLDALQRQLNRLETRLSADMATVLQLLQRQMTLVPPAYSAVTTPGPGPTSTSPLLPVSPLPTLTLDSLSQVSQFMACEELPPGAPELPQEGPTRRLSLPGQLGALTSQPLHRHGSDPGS

| SMILES | hERG current change (%, negative = inhibition) at 10uM [%] |
| --- | --- |
| O=C(O)C1CCN(S(=O)(=O)c2cccc3nonc23)CC1 | 9.01 |
| CCCCOc1ccc(C(=O)N2CCCC2C(=O)O)cc1 (stereo not drawn) | -5.76 |
| COC(=O)CC1C(=O)NCCN1C(=O)c1cc([N+](=O)[O-])ccc1Cl (stereo not drawn) | 15 |
| O=C(O)[C@@H]1CCCN1S(=O)(=O)c1cccc(S(=O)(=O)N2CCC[C@H]2C(=O)O)c1 | 16.5 |
| Cc1cccc(OCc2nnc(SCC(=O)Nc3cccc(C(=O)N4CCOCC4)c3)n2C)c1C | -12.7 |
| CCNCCC(=O)N1c2ccccc2Sc2ccc(NC(=O)OCC)cc21.Cl | -29.6 |
| NC(=O)[C@@H]1CCCN1C(=O)c1cc(COc2ccc3c(c2)CCCC3)on1 | -15 |
| O=C(Nc1cccnc1)c1ccc(Cl)c(S(=O)(=O)N2CCOCC2)c1 | -1.56 |
| CCOC(=O)N1CCN(C(=O)c2cnsn2)CC1 | 8.52 |
| CCCN(CCC)S(=O)(=O)c1ccc(C(=O)N2CCN(C)CC2)cc1 | 3.58 |
| Clc1ccccc1C1=CC(c2ccco2)n2nnnc2N1 (stereo not drawn) | 1.89 |
| CC(C)Sc1nc(N2CCCC2)c2c(c1C#N)CC(C)(C)OC2 | -16.5 |
| CC(C)c1nnc(NC(=O)CCc2ccccc2)s1 | 21.6 |
| CCOC(=O)CSc1nnc(-c2cccnc2)n1C | 12.3 |
| COC(=O)c1c(NC(=O)COC(=O)c2ccccn2)sc(C)c1C | 3.74 |
| O=C(Oc1ccc2c(c1)OCO2)c1ccc(F)cc1Cl | -4.08 |
| COc1cccc(-n2c(CN3CCOCC3)nc3ccc([N+](=O)[O-])cc3c2=O)c1 | 4.51 |
| CSc1ccccc1OCc1cc(C(=O)N[C@H]2CCCCNC2=O)no1 | 10.7 |
| CCc1noc(C)c1C(=O)OCC(=O)Nc1ccc(F)cc1Cl | 14.3 |
| Nc1nnc(SCC(=O)NC2CCCC2)s1 | 14.3 |
| CCOc1ccc2nc(NC(=O)CN3CCN(c4ccccn4)CC3)sc2c1 | -7.47 |
| Cc1ccc(Cn2c(SCCN3CCOCC3)nc3c2c(=O)n(C)c(=O)n3C)cc1 | -28 |
| O=C(Cn1c(C(F)(F)F)nc2ccccc21)NCCN1CCCC1 | 4.91 |

| SMILES | hERG current change (%, negative = inhibition) at 10uM [%] |
| --- | --- |
| COc1ccc(C(C)=O)cc1CSc1nc2cc(Cl)ccc2o1 | 9.66 |
| CC(=O)c1cccc(NC(=O)CCS(=O)(=O)c2cccc3nsnc23)c1 | 6.56 |
| COC(=O)/C(=C1\Oc2ccc(C(C)(C)C)cc2S1)C(F)(F)F | 2.47 |
| COc1ccc(-c2[nH]ncc2C2N=C(N)Nc3nc4ccccc4n32)cc1 (stereo not drawn) | 27.9 |
| COc1cc(OC)cc(C(=O)N[C@H](C(=O)OCC(N)=O)C(C)C)c1 | 4.3 |
| COc1ccc(C2C(C(=O)OCC3CCCO3)=C(C)NC3=C2C(=O)CC(c2ccco2)C3)cc1O (stereo not drawn) | 5.72 |
| N#Cc1ccccc1COC(=O)c1ccc(Br)o1 | 5.75 |
| Cc1ccccc1N1CCN(C(=O)[C@@H]2CCCN2C2=NS(=O)(=O)c3ccccc32)CC1 | -14.3 |
| CCOC(=O)/C=C/C(=O)NNC(=O)c1ccccc1Cl | 6.55 |
| O=C(CN1C(=O)c2ccccc2C1=O)Nc1cccc([N+](=O)[O-])c1 | 13.9 |
| COc1ccc(C(C(=O)NC2CCCC2)N(Cc2cccnc2)C(=O)Cc2cccs2)c(OC)c1 (stereo not drawn) | 1.08 |
| CCc1c(C(C)S(=O)(=O)c2ccccc2)[nH]c(=O)n1CC (stereo not drawn) | 9.71 |
| Cc1ccc(C(=O)Nc2ccc(S(=O)(=O)NC3=NCCCCC3)cc2)c(C)c1 | -9.74 |
| Cc1ccc2c(c1)c1c(n2CC(O)CNC2CCCCC2)CCCC1.Cl (stereo not drawn) | -37.4 |
| CCc1ccc2[nH]c(=O)c(CN(CC3CCCO3)C(=S)NCc3ccco3)cc2c1 (stereo not drawn) | -21.6 |
| O=C(Nc1nccs1)c1c(O)c2cccc3c2n(c1=O)CCC3 | 9.28 |
| O=C(CN1CCN(S(=O)(=O)c2ccc(Br)cc2)CC1)Nc1ccc(F)cc1F | -73.5 |
| CCSc1ncc(/C=N/Nc2ccc(F)cc2)n1C | -31.8 |
| S=C(Nc1ccccc1)N1CCCCC1 | 10.6 |
| CCOC(=O)/C(=C\c1cccnc1)C(=O)c1cc(C(C)=O)c(Nc2ccccc2)s1 | -34.6 |
| CCOc1ccc([N+](=O)[O-])c(N)c1 | 0.0571 |
| CC1(C)CC(=O)C(C2NCCc3ccccc32)=C(O)C1 (stereo not drawn) | 19.5 |
| COc1ccc(/C=N/N2CCN(C3c4ccccc4-c4ccccc43)CC2)cc1OC | 6.65 |

| SMILES | hERG current change (%, negative = inhibition) at 10uM [%] |
| --- | --- |
| CN(c1ccccc1C(=O)Nc1ccc2c(c1)OCO2)S(C)(=O)=O | -1.26 |
| CCC(=O)N=c1sc2ccccc2n1-c1ccccc1 | 17.8 |
| COC(=O)c1ccc(COc2ccccc2OC)o1 | 4.67 |
| Fc1cc(F)cc(-c2c(-c3ccccc3)ncc3ccc(F)cc23)c1 | 14.2 |
| O=C1c2ccccc2C(=O)N1CC(O)COCc1ccccc1 (stereo not drawn) | 19.4 |
| O=C(Cn1c(=O)n(Cc2ccccc2)c(=O)c2ccccc21)NCc1ccco1 | -4.53 |
| Cc1ccc(C2=NN(S(C)(=O)=O)C(c3cccs3)C2)cc1 (stereo not drawn) | -4.62 |
| COC(=O)c1[nH]c2ccccc2c1NC(=O)C(C)N1CCN(C(=O)c2ccco2)CC1 (stereo not drawn) | -35.3 |
| CN(C)c1ccc(C=Nc2cnn(C)c2C(N)=O)cc1 | 0.759 |
| CCC(=O)Nc1ccc(OCc2nnc3c4ccccc4c(C)nn23)cc1 | -5.77 |
| Cc1ccc(S(=O)(=O)c2c(C)nn(-c3ccccc3)c2OC(=O)c2ccco2)cc1 | 1.19 |
| O=C(CCC(=O)N1CCOc2ccccc21)Nc1cc(F)ccc1F | -8.84 |
| Cc1cccc(NNC(N)=S)c1C | -5.6 |
| CC(NCc1cccs1)c1ccccc1.Cl (stereo not drawn) | 11.1 |
| C/C(=N\O)c1noc(C)c1C(=O)Nc1nccs1 | 19.2 |
| CCn1c(SCC(=O)OCc2ccccc2)nc2c1c(=O)n(C)c(=O)n2C | -15 |
| CCN1CCN(Cc2nc3ccc([N+](=O)[O-])cc3c(=O)n2-c2ccccc2F)CC1 | 17.9 |
| O=C1C2CCCN2C(c2cccc(Br)c2)N1c1ccc(F)cc1 (stereo not drawn) | -21.9 |
| O=C(NC(=S)NNC(=O)[C@H]1C[C@@H]1c1ccccc1)c1cccc(F)c1 | 24.8 |
| CC(C)NC[C@H](O)c1ccc(O)c(O)c1.Cl | -4.26 |
| CCOC(=O)N1CCN(C(=O)CSc2nnc(COc3ccc(Cl)cc3)o2)CC1 | -37.8 |
| NC(=O)CSc1nnc(-c2cccc(S(=O)(=O)N3CCOCC3)c2)n1C1CCCCCC1 | -13.1 |
| CC(=O)c1cc(-c2ccc(F)cc2)n(CCC(=O)Nc2cc(C)[nH]n2)c1C | 11.8 |

| SMILES | hERG current change (%, negative = inhibition) at 10uM [%] |
| --- | --- |
| CCC(Oc1ccc(Br)cc1)C(=O)N1CCN(c2ncccn2)CC1 (stereo not drawn) | -16.3 |
| COc1ccc(-n2c(=S)[nH]c3cc(C(=O)NCCCN4CCCC4=O)ccc3c2=O)c(OC)c1 | 12.9 |
| CCN(CC)CC(=O)Nc1c(C)cc(C(C)(C)C)cc1C.Cl | -41.8 |
| COc1ccc(CC(=O)Nc2ccc(-c3nc4cc(C)ccc4o3)c(O)c2)cc1OC | 7.1 |
| Cc1cccc(CNC(=O)c2ccccc2N)c1 | -14.5 |
| CCOC(=O)c1c(NC(=O)c2ccoc2C)sc(C(=O)N(C)C)c1C | -2.62 |
| COc1ccc(C(=O)NCc2nnc(SCCOc3ccccc3)n2C)cc1 | -15.5 |
| CC1(C)CC(=O)C=C(c2ccc3c(c2)OCO3)C1 | -2.33 |
| CC1CCN(C(=O)c2[nH]cnc2C(=O)N[C@@H](Cc2ccccc2)C(=O)OC(C)(C)C)CC1 | -10 |
| Cc1n[nH]c(C)c1CCN.Cl | 12.9 |
| Cn1c(C(=O)NCCN2CCc3ccccc3C2)cc2c(=O)[nH]c3ccccc3c21 | -21.3 |
| COc1ccc(NC(=O)CN(CC(=O)Nc2ccc(OC)cc2)C(C)(C)CO)cc1 | 13.8 |
| COc1ccc(CC(=O)NCc2cccs2)cc1OC | 2.71 |
| O=C1CCCN1c1ccc(S(=O)(=O)N2CCCCC2)cc1 | 9.81 |
| Cc1cc(-c2ccc(C)c(S(=O)(=O)N3CC(=O)Nc4ccccc43)c2)on1 | 4.16 |
| COc1cc(OC)c(S(=O)(=O)NC(C)C)cc1S(=O)(=O)NC(C)C | 2.64 |
| COc1ccc(CCNC(=O)CN2C(=O)CSc3ccc(S(=O)(=O)N4CCOCC4)cc32)cc1OC | -0.827 |
| O=C(c1ccc(-c2ccc([N+](=O)[O-])cc2)o1)N1CCCCCCC1 | -22.7 |
| CC(=O)Oc1ccc(C(=O)Nc2nnc(C)s2)cc1 | -10.8 |
| O=C1NC(=Nc2ccccc2)SC1(CO)CO | 5.16 |
| CCCn1ncc(CN2CCC(Cc3cccc(F)c3)(C(=O)OCC)CC2)c1C | -59.7 |
